Source: PubChem BioAssay AID686978 (National Center for Advancing Translational Sciences (NCATS), 2013)
Among all 420,000 compounds or so, about 64,000 (15%) were called active. This list was built around the results that the source calls inconclusive (neither active nor inactive); the mix of calls is not that of the screen. Calls follow the shape of the dose curve; as a rule, active = well fitted inhibition curve with a large enough effect; inconclusive = small, poorly fitted or top-dose-only effect; inactive = flat fitted curve, though single readings scatter. No potency is given beside an inconclusive call; the fits are too rough.

Experiment: qHTS for Inhibitors of human tyrosyl-DNA phosphodiesterase 1 (TDP1): qHTS in cells in absence of CPT; also: nearly all actives have a fitted effect of over 55% in size
Settings: DT40 Tdp1-/- hTDP1 cells, no CPT, ATP luminescence, 48 h; activity change, negative = growth inhibition: at 46.2 µM (top of the series) unless noted
Procedure, shortened: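 Growth of hTDP1-complemented DT40 Tdp1-knockout cells is measured by ATP luminescence after at least 48 hr compound exposure at 37 °C, with DMSO substituting for the 20 nM CPT used in the parallel screen.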
% is scaled to controls: 0 for no effect and ±100 for the full control effect; potency is read from the fitted curve at half-maximal effect; tags tell the direction and shape of the fitted curve.

| Structure (SMILES) | Potency | activity change, negative = growth inhibition |
| --- | --- | --- |
| COC(=O)C[C@@H]1CC[C@@H](NS(=O)(=O)c2ccccc2OC)[C@@H](CO)O1 | inactive |  |
| COc1cc(CN2CCC(C(=O)N3CCN(c4ccccc4F)CC3)CC2)ccc1O | inconclusive [inhibitor, single point] |  |
| COc1ccc(S(=O)(=O)Nc2cccc(-c3ccc(N4CCCC4)nn3)c2)c(OC)c1 | inactive |  |
| CCCCn1c(C(C)NC(=O)CCC)nc2ccccc21 (centres undefined) | active: 18.4 µM |  |
| CC(=O)c1ccc(NC(=O)COC(=O)c2ccccc2Nc2ccccc2)cc1 |  | inconclusive: -34.3% [inhibitor] |
| COc1cccc(NC(=O)C2(C)CCN2CC2CCCCC2)c1 (centres undefined) | inactive |  |
| CCOc1ccccc1N(CC)C(=O)Cn1ncc2c([nH]c3ccccc32)c1=O | inconclusive [inhibitor, single point] |  |
| CCOc1ccccc1NC(=O)C(OC(=O)c1ccccc1O)c1ccccc1 (centres undefined) | inconclusive [inhibitor, single point] |  |
| NCCCC[C@H](NC(=O)[C@@H]1CCCN1C(=O)[C@@H]1CSSC[C@H](NC(=O)CNC(=O)CNC(=O)CN)C(=O)N[C@@H](Cc2ccc(O)cc2)C(=O)N[C@@H](Cc2ccccc2)C(=O)N[C@@H](CCC(N)=O)C(=O)N[C@@H](CC(N)=O)C(=O)N1)C(=O)NCC(N)=O | inactive |  |
| COc1ccccc1-n1c(SCC(=O)c2ccc(O)cc2O)nc2cc([N+](=O)[O-])ccc21 | inconclusive [inhibitor, partial curve, poor fit] |  |
| Cc1ccc(S(=O)(=O)N2CCC(=O)N([C@H](COC(=O)Nc3ccccc3)Cc3ccccc3)CC2)cc1 | active: 18.4 µM |  |
| NC(=O)C1CCN(C(=O)c2ccc(NC(=O)c3nsc4ccccc34)cc2)CC1 | inconclusive [inhibitor, single point] |  |
| Cc1occc1C(=O)NC(C)CCc1ccccc1 (centres undefined) | inconclusive [inhibitor, single point] |  |
| CCN1CCN(c2c(Cl)cccc2NC(=O)c2ccc3nsnc3c2)CC1 | inconclusive [inhibitor, single point] |  |
| COc1cccc(CNC(=O)c2ccc3c(c2)c(C)c(C)n3Cc2ccccc2)c1 | active: 18.4 µM |  |
| COC(=O)c1sc2cnccc2c1N | inconclusive [inhibitor, partial curve] |  |
| Cc1ccc(C)c(COC(=O)CCN=C2NS(=O)(=O)c3ccccc32)c1 | inactive |  |
| CC1=NN(c2ccccc2)C(=O)C1C(=S)SC1CC(=O)NC1=O (centres undefined) | active: 29.1 µM |  |
| Cn1cncc1C(=O)c1ccccc1 | inactive |  |
